Laboratory results published in the RNAGym collection of RNA variant scans (doi:10.1101/gad.245936.114).
This sample is rich in variants without activity.

B1: tRNA (parent)
chain: CUCUCGGUAGCCAAGUUGGUUUAAGGCGCAAGACUUUAAUUUAUCACUACGAAAUCUUGAGAUCGGGCGUUCGACUCGCCCCCGGGAGAUUUUUUCCUCGAGCAA

Variants of: B1
Assay: nonsense suppression (GFP-seq) (ratio to wild type); higher = more function; SUP4oc tRNA, yeast GFP reporter sort-seq
Outline: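 Yeast carrying genome-integrated SUP4oc tRNA variants from a library with ~3% random mutations were grown in raffinose/galactose medium with 80 mg/L adenine. Each strain also carried a galactose-driven GFP ochre reporter and RFP. Cells were sorted into GFP/RFP bins, and each bin was Illumina-sequenced (phred ≥30). Nonsense suppression (GFPSEQ) is the bin median GFP/RFP, weighted by each variant's estimated cell share per bin, relative to wild-type SUP4oc; variants needed ≥100 reads and ≥30 cells.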

Nonsense suppression, 0.0541:
U8C U70G A74C G84C

Nonsense suppression, 0.0277:
U8A A9G

Nonsense suppression, ≤ 0.026:
U8C A9U A13U
U8C G67A A87C
G7U G15U G84U
U8A C27G G88A A89C
U8A C83G
G7U A14G U35G
U8C C11A C81G
U8C C83A
U8C C12A G19U
U8C U17C G66A C75A
U8A A24G
G7U A30U U55A
G7U U58A
U8A U22C U57G U63C C83A
U8A U57G A89U
G7U U22A
G7U A31G A60C
U8A U57C A74C G78U G85U A87U
U8A C12U A33G
G7U G32C U70C
G7U C12G A31G U57C C77A
U8G A13C U63A
U8A U57C G85U
U8C U17C G66C
U8A C34U A62U G84A
G7U G19A U21G
U8C G18C C27U U55C G65A
U8C A9C G25C G28A A31U C68U U76C
G7U G18U C82A
U8A G10C A23C
U8C G26A G65C
U8A G19A C29A U55C A62U G69A C79U A87C
U8G A14U U57A G67C
G7U C27U G65C
U8C U55C U70A A74C
U8C G78A C79U
G7U A14G G59U A89C
U8C A9U G85A G88A
U8A C29U C72A
U8C C64A C75A
U8C U21G A60U A89C
G7U A31C U76C A89G
U8A U76A
U8A G32C
G7U A24U G67U U71C
U8C C27A U57G U76C
U8A A9G C56G
G7U A24G A89G
G7U G26A G86C
U8A U20G A62C C72A C79A
G7U U57A G59C C64A U70G
G7U A23C G25C G26C G67U U70A C77A G86A
U8C A62G G88C
U8C U63G
U8A G84U
U8G A13C G86A
U8C A13G A14C G26U
U8C A54U G85C G88C
U8G A33G U57C U58C C77A C79U
U8A U21A U76C
U8C C75G
U8C U35C A89G
G7U C12U U58G U76C
G7U U21G A23U C79G
U8C U17C C72U G84U
U8A G59A G61U G88A
U8A A24C C79G
G7U A31U G84A
U8A C11U G78C
G7U G28U U71G C72A G86U
U8A A54U C79A
U8G A13U G15U A24U U55A G86A
G7U U16G C80G
U8C G32U G84C
U8C U55G
U8A G59A G61A
U8G A31U A33G G69A G73U C75A
U8C U35G U71A
U8C G18C A30C C80U
U8G A13C G66A C81A
U8G A31U G85A
